Source: PubChem BioAssay AID504706 (National Center for Advancing Translational Sciences (NCATS), 2011)
Out of some 320,000 compounds screened, about 200 (0.062%) were called active. Inconclusive results, whose numbers are uncertain, are shown with a selection of clear calls. Calls come from the whole dose curve; as a rule, active = well fitted activation curve with a large enough effect; inconclusive = small, poorly fitted or top-dose-only effect; inactive = no such curve, though single readings can be large or run the other way. Potencies of inconclusive entries are left out as doubtful fits.

Assay: qHTS assay for re-activators of p53 using a Luc reporter; note: nearly all actives have a fitted effect of over 45% in size
Details: H1299 p53-A138V BP100-luciferase reporter, luminescence, 24 h; series mostly up to 92.2 µM
Summary of the method: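 p53-null H1299 cells stably carrying temperature-sensitive p53-A138V and a BP100-luciferase reporter were pinned with compounds (4-point, 1:5 series) and held 24 hrs at 37 deg C. Luminescence was read 10 min after detection reagent.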
Potency is the fitted concentration of half-maximal effect; tags give direction and shape of the fitted curve.

Structure (SMILES)	Potency
CCN(CC)S(=O)(=O)c1ccc(N2CCOCC2)c(NC(=O)c2[nH]c(C)c(C(C)=O)c2C)c1	inactive
CN(C)CCCNC(=O)CCC1CCCCC1	inconclusive [activator, single point]
Cc1c(C(=O)NCc2ccoc2)oc2ccc3c(c12)C(=O)CC(C)(C)O3	inconclusive [activator, partial curve, poor fit]
O=C(Nc1ccccc1C(F)(F)F)c1cc(-c2ccc(O)cc2)on1	inconclusive [activator, partial curve, poor fit]
O=C(OCCc1cc2ccccc2c(=O)o1)c1cccs1	inconclusive [activator, partial curve, poor fit]
Cc1ccc(NC(=O)Nc2ccc(Cl)c(Cl)c2)nc1	inconclusive [activator, full curve, poor fit]
Cc1cccc(-n2c(C)nc3c(cnn3-c3ccc(F)cc3)c2=O)c1	inconclusive [activator, partial curve, poor fit]
O=C(Nc1nc2c(s1)CCCC2)c1ccc(Br)o1	inconclusive [activator, partial curve, poor fit]
CCOC(=O)c1sc(NC(=O)c2cncc(Br)c2)nc1C	inconclusive [activator, full curve, poor fit]
CCOC(=O)c1cn(CC(=O)Nc2ccc(CC)cc2)nn1	inactive
CCOC(=O)c1cccc(NS(=O)(=O)c2ccc(NC(C)=O)cc2)c1	inactive
O=C(CN1CCOCC1)Nc1ccc2c(c1)CCC2	inconclusive [activator, partial curve, poor fit]
O=C(CN1C(=O)CCC1=O)Nc1nc(-c2nc3ccccc3s2)cs1	inconclusive [activator, partial curve, poor fit]
COC(=O)C(=Cc1ccc(OCc2ccc([N+](=O)[O-])cc2)c(OC)c1)C(=O)OC	inconclusive [activator, full curve, poor fit]
CC(=O)c1sc(NC(=O)C(C)(C)C)nc1C	inactive
Cn1nnc(NC(=S)NC(=O)c2cccc3c(Cl)cccc23)n1	inactive
Cc1cccc(Nc2nc3ccccc3s2)c1C	inconclusive [activator, partial curve, poor fit]
COc1ccc(CC(=O)Nc2ccc(S(=O)(=O)Nc3onc(C)c3C)cc2)cc1OC	inactive
N#CC1(NC(=O)COC(=O)/C=C/c2ccc3ccccc3n2)CCCCC1	inactive
CCn1c(SCC(=O)c2cccs2)nnc1-c1ccco1	inconclusive [activator, single point]
Cc1ccc2c(c1)C1CN(C)CCC1N2C(=S)NC(=O)c1ccc(Cl)cc1Cl (stereo not drawn)	inactive
Cc1cc(NC(=O)c2cncc(Br)c2)no1	inconclusive [activator, partial curve, poor fit]
Clc1ccc(N2CCN(Cc3c[nH]c4ncccc34)CC2)cc1	inactive

Structure (SMILES)	Potency
O=C(NCc1ccc(Cl)cc1)c1cc2ccccc2oc1=O	inconclusive [activator, single point]
CCCCN1C2CCCC1CC(NC(=O)c1ccccc1Cl)C2 (stereo not drawn)	inconclusive [activator, single point]
CCCCC(=O)NC(c1ccco1)c1cc(Cl)c2cccnc2c1O (stereo not drawn)	inactive
O=C(c1ccc(CNS(=O)(=O)c2ccccc2)cc1)N1CCN(Cc2ccccc2)CC1	inactive
O=C(Cc1cccs1)NCc1ccccc1F	inconclusive [activator, full curve, poor fit]
O=C(/C=C/c1cnc2ccccc2n1)NC12CC3CC(CC(C3)C1)C2	inconclusive [activator, partial curve, poor fit]
COc1ccc(NC(C#N)c2ccccc2OCc2ccccc2)cc1 (stereo not drawn)	inconclusive [activator, partial curve, poor fit]
CC(=O)Nc1ccc(S(=O)(=O)NCC2CCC(C(=O)NCc3ccccc3)CC2)cc1 (stereo not drawn)	inactive
c1ccc(CCSc2nccn2-c2ccccc2)cc1	inconclusive [activator, partial curve, poor fit]
Fc1ccc(-n2c(-c3ccc4ccccc4n3)n[nH]c2=S)cc1	inactive
Cc1ccc(N(C)S(=O)(=O)c2cccc(C(=O)N(C)Cc3cnn(-c4ccccc4)c3)c2)cc1	inactive
Cc1ccnc(NS(=O)(=O)c2ccc(NC(=O)c3ccc(Cl)cc3[N+](=O)[O-])cc2)n1	inconclusive [activator, single point]
CNC(=S)N/N=C/c1ccc2c(c1)OCCO2	inactive
Cc1ccc2nc(-c3ccccc3NC(=O)CCC(=O)O)c(=O)[nH]c2c1	inconclusive [activator, single point]
O=C(CCN1C(=O)C2CCCCC2C1=O)Nc1nc2c(F)cc(F)cc2s1 (stereo not drawn)	inconclusive [activator, partial curve, poor fit]
Cc1cc(NC(=O)c2ccc3nccnc3c2)ccc1Br	inconclusive [activator, partial curve, poor fit]
CC(C)C(=O)Nc1cccc(NC(=S)NC(=O)c2ccc3c(c2)OCO3)c1	inactive
COc1cccc(C(=O)Nc2ccc(N(C)C)cc2)c1OC	inconclusive [activator, partial curve, poor fit]
O=C(c1ccccc1)c1ccc(OCCCN2CCCC2)cc1	inconclusive [activator, single point]
COC(=O)c1sccc1NC(=O)COc1ccc(Cl)cc1Cl	inconclusive [activator, full curve, poor fit]
N#Cc1cccc(NC(=O)CSc2nnc(-c3n[nH]c4ccccc34)o2)c1	inconclusive [activator, single point]
CC(=O)c1ccc(NC(=O)CSc2nnc(NC(=O)c3ccco3)s2)cc1	inconclusive [activator, partial curve, poor fit]
NC(=O)c1ccc(-n2c(CCC(=O)O)ccc2-c2cccs2)cc1	inconclusive [activator, partial curve, poor fit]

Structure (SMILES)	Potency
COc1ccc(/C=C/c2nc(-c3ccccc3O)n[nH]2)cc1	inconclusive [activator, full curve, poor fit]
O=c1[nH]cc(N=Cc2cc(Cl)cc(Cl)c2O)c(=O)[nH]1	inconclusive [activator, single point]
Cc1ccc(C(=O)Nn2c(O)c(C=C3N=c4ccccc4=N3)sc2=S)cc1	inactive
Oc1c(Cl)cc(Cl)cc1C=Nc1cc(C(F)(F)F)ccc1N1CCc2ccccc2C1	inconclusive [activator, full curve, poor fit]
CCN(CC1CCCN(CCc2cccc(F)c2)C1)C(=O)c1ccc(CSC)o1 (stereo not drawn)	inconclusive [activator, partial curve, poor fit]
C/C(=N\NC(=O)c1ccco1)c1ccc(NC(=O)c2cccs2)cc1	inconclusive [activator, partial curve]
Cc1ccnc(NC(=O)c2ccc(Cl)c(S(=O)(=O)N3CCCCC3)c2)c1	inconclusive [activator, partial curve, poor fit]
CCOC(=O)/C=c1\s/c(=C\c2ccc3cc(OC)ccc3c2)c(=O)n1CC(=O)NCc1ccc2c(c1)OCO2	inactive
c1ccc(COc2ccc(CNn3cnnc3)cc2)cc1	inconclusive [activator, partial curve, poor fit]
CC1CN(C2CCN(C(=O)c3ccccc3)CC2)CC(C)O1 (stereo not drawn)	inactive
Cc1ccc(C(=O)COC(=O)c2ccc(O)cc2)cc1	inactive
COC(=O)c1ccc(C(=O)NC(=S)Nc2nc3c(s2)CC(C)CC3)cc1 (stereo not drawn)	inconclusive [activator, full curve, poor fit]
O=C(N/N=C/c1cc(Cl)ccc1O)c1ccccc1Br	inconclusive [activator, partial curve, poor fit]
Cn1nc(C(=O)N2CCN(c3cccc(Cl)c3)CC2)c2c1-c1ccccc1S(=O)(=O)C2	inactive
O=C(Cn1nnc(-c2cccc(C(F)(F)F)c2)n1)N1CCOCC1	inactive
COc1ccc([C@H]2CC(=O)C=C(c3ccc(Cl)c(Cl)c3)C2)cc1	inconclusive [activator, single point]
C=CCNc1nc(-c2cc3ccccc3o2)cs1	inconclusive [activator, partial curve, poor fit]
CCOc1cccc2sc(N(CCN(CC)CC)C(=O)c3ccc(S(=O)(=O)N4CCCC4)cc3)nc12	inconclusive [activator, partial curve, poor fit]
O=C(N/N=C/c1ccccn1)c1ccccc1	inconclusive [activator, full curve, poor fit]
Cc1ccc(NC(=S)NCc2ccccc2)cc1[N+](=O)[O-]	inconclusive [activator, single point]
COc1ccc2nc(N3CCCC3)[nH]c2c1	inconclusive [activator, partial curve, poor fit]
C#CCOc1coc(COC(=O)c2ccccc2)cc1=O	inconclusive [activator, partial curve, poor fit]
